This is an account of results in the antibiotic and cytotoxicity screens of Wong et al. (2023).

Some of the results follow.

For one experiment, the system named is HSkMC (human skeletal muscle cells). Description: cytotoxicity call (relative viability < 0.9). To be noted: 10 µM.
Turning to `C[C@@H]1CN([C@@H](C)CO)C(=O)c2cc(NC(=O)Nc3ccc4c(c3)OCO4)ccc2O[C@@H]1CN(C)Cc1ccc(C(=O)Nc2ccccc2N)cc1`, the cytotoxicity call is “inactive”.
As to `C[C@H](CO)N1C[C@H](C)[C@@H](CN(C)C(=O)Cc2ccccn2)Oc2ncc(-c3ccc(F)cc3)cc2C1=O`, the cytotoxicity call is “inactive”.
With `COc1ccc(NC(=O)Nc2cccc3c2O[C@@H](CN(C)Cc2ccc(-c4ccccc4)cc2)[C@@H](C)CN([C@@H](C)CO)C3=O)cc1`, the cytotoxicity call is “inactive”.
Take `C[C@H]1CCCCO[C@H](CN(C)S(=O)(=O)c2ccc(Cl)cc2)[C@@H](C)CN([C@@H](C)CO)C(=O)c2cc(NC(=O)NC3CCCCC3)ccc2O1`: the cytotoxicity call is “inactive”.
Still for that read-out and setting: for `O=C(C[C@H]1C=C[C@@H](NC(=O)CN2CCOCC2)[C@H](CO)O1)NC1CCCCC1` the value was “inactive”; for `C[C@@H]1CN([C@H](C)CO)C(=O)c2cccc(NC(=O)CCCCCC(=O)Nc3ccccc3N)c2O[C@H]1CN(C)C(=O)Nc1ccccc1`, “inactive”; for `Cc1noc(C)c1S(=O)(=O)N(C)C[C@H]1OCCCC[C@H](C)Oc2ccc(NS(=O)(=O)c3cn(C)cn3)cc2C(=O)N([C@@H](C)CO)C[C@@H]1C`, “inactive”.
Same read-out and setting: next, `C[C@H](CO)N1C[C@H](C)[C@H](CN(C)C)OCCCC[C@H](C)Oc2ccc(NC(=O)Nc3ccc(C(F)(F)F)cc3)cc2C1=O`: “inactive”.
As for `CO[C@H]1CN(C)C(=O)c2cc(NC(=O)Nc3ccccc3F)ccc2OC[C@@H](C)N(CCC(F)(F)F)C[C@H]1C`, the cytotoxicity call is “inactive”.
With `C[C@@H]1CCCCO[C@@H](CN(C)C(=O)CCC(F)(F)F)[C@H](C)CN([C@H](C)CO)C(=O)c2cc(NC(=O)c3ccccc3)ccc2O1`, the cytotoxicity call is “inactive”.
Regarding `COC(=O)CNc1nc(OC)nc(N(C)C)n1`, the cytotoxicity call was “inactive”.
Turning to `CC(C)NC(=O)N(C)C[C@@H]1Oc2ccc(NC(=O)CCC(F)(F)F)cc2C(=O)N([C@@H](C)CO)C[C@@H]1C`, the cytotoxicity call is “inactive”.
In the case of `C[C@H]1CN([C@@H](C)CO)C(=O)c2cc(C3=CCCCC3)cnc2O[C@H]1CN(C)C(=O)CN1CCOCC1`, the cytotoxicity call is “inactive”.
Still for that read-out and setting: next, `O=C(NO)c1cccc(C(=O)N/N=C/[C@H](O)[C@H](O)[C@@H](O)[C@@H](O)CO)c1`: “inactive”; `COc1ccc(S(=O)(=O)Nc2ccc3c(c2)CC(=O)N([C@@H](C)CO)C[C@@H](C)[C@H](CN(C)Cc2ccc(Oc4ccccc4)cc2)O3)cc1`: “inactive”.
Same read-out and setting: for `C[C@H](CO)N1C[C@H](C)[C@H](CN(C)Cc2ccncc2)OCCCC[C@H](C)Oc2ccc(NC(=O)Cc3ccccc3)cc2C1=O` the value was “inactive”.
The same measure, in the same setting: next, `C[C@H]1CN([C@@H](C)CO)C(=O)c2cc(NC(=O)C3CC3)ccc2O[C@H]1CN(C)Cc1ccc(Oc2ccccc2)cc1`: “inactive”.
Take `COC(=O)[C@@H]1CCCC1=O`: the cytotoxicity call was “inactive”.

A further experiment concerns HepG2. Description: cytotoxicity call (relative viability < 0.9). As to conditions: 10 µM.
On to `COc1ccc(CN(C)C[C@@H]2OCCCC[C@H](C)Oc3ccc(NC(=O)CCC(F)(F)F)cc3C(=O)N([C@H](C)CO)C[C@@H]2C)cc1`, for which the cytotoxicity call was “inactive”.
Turning to `CN(C)CC(=O)N1[C@@H](CO)[C@@H](c2ccc(C3=CCCC3)cc2)C12CN(S(=O)(=O)Cc1ccccc1)C2`, the cytotoxicity call is “inactive”.
Same read-out and setting: for `NC(CSSCC(N)C(=O)O)C(=O)O` (stereo not drawn) the value was “inactive”; for `C[C@H](CO)N1C[C@H](C)[C@H](CN(C)Cc2ccccc2)Oc2cc(C#Cc3ccccn3)ccc2S1(=O)=O`, “inactive”; for `C[C@H](CO)N1C[C@H](C)[C@@H](CN(C)C(=O)Cc2ccncc2)Oc2cc(C3=CCCC3)ccc2S1(=O)=O`, “inactive”.
Same read-out and setting: next, `CN1CCN(C(=O)C[C@H]2CC[C@H]3[C@@H](COC[C@H](O)CN3S(=O)(=O)c3cccc(Cl)c3)O2)CC1`: “inactive”; `C[C@@H]1CCCCO[C@H](CN(C)S(=O)(=O)c2cn(C)cn2)[C@H](C)CN([C@@H](C)CO)C(=O)c2cc(NC(=O)Nc3ccc(C(F)(F)F)cc3)ccc2O1`: “inactive”; `COc1ccc(S(=O)(=O)N(C)C[C@H]2Oc3ccc(NS(C)(=O)=O)cc3C(=O)N([C@H](C)CO)C[C@H]2C)cc1`: “inactive”.
The same measure, in the same setting: next, `COc1ccc(S(=O)(=O)Nc2ccc3c(c2)CC(=O)N([C@H](C)CO)C[C@@H](C)[C@H](CN(C)Cc2ccncc2)O3)cc1`: “inactive”.
On to `COc1cccc(S(=O)(=O)N[C@H]2CC[C@@H](CC(=O)NC3CCC3)O[C@@H]2CO)c1`, for which the cytotoxicity call is “inactive”.
Still for that read-out and setting: for `CO[C@H]1O[C@H](CO)[C@@H](OC(=O)Nc2ccccc2-c2ccccc2)[C@H](OC(=O)Nc2ccccc2)[C@@H]1OC(=O)Nc1ccccc1` the value was “active”.
Turning to `O=C(N[C@H]1CC[C@H](CCNS(=O)(=O)c2ccc(F)cc2)O[C@@H]1CO)C1CC1`, the cytotoxicity call was “inactive”.
On the same count and under the same terms, for `Cc1noc(C)c1S(=O)(=O)Nc1ccc2c(c1)CC(=O)N([C@H](C)CO)C[C@H](C)[C@H](CN(C)S(=O)(=O)c1ccc(Cl)cc1)O2` the value was “inactive”; for `CC(C)c1c(O)ccc2c1CCC1C(C)(C=O)CCCC21C` (stereo not drawn), “inactive”; for `CN1C(=O)c2cc(NC(=O)c3cnccn3)ccc2OC[C@H]2O[C@@H](CC(=O)N[C@@H]3CCN(Cc4ccccc4)C3)CC[C@H]21`, “inactive”.
Consider `O=C(C[C@H]1C=C[C@@H](NS(=O)(=O)c2ccc(F)cc2)[C@@H](CO)O1)N1CCC(Cc2ccccc2)CC1`, for which the cytotoxicity call is “inactive”.
Same read-out and setting: next, `CC(=O)c1ccc2c(c1)N(CCCN(C)C)c1ccccc1S2.O=C(O)C=CC(=O)O`: “inactive”.
On the same count and under the same terms, for `CC(C)NC(=O)Nc1cccc2c1O[C@H](CN(C)Cc1ccc(-c3ccccc3)cc1)[C@@H](C)CN([C@H](C)CO)C2=O` the value was “inactive”; for `C[C@H]1CN([C@@H](C)CO)C(=O)Cc2cc(NS(=O)(=O)c3ccc(F)cc3)ccc2O[C@@H]1CN(C)S(=O)(=O)c1ccc(F)cc1`, “inactive”.
As to `NCc1cc(Oc2cccc(C(=O)N3C[C@@H](O)[C@H](F)C3)c2)nc(C(F)(F)F)c1`, the cytotoxicity call is “inactive”.
Still for that read-out and setting: for `C[C@@H]1CCCCO[C@H](CN(C)C(=O)Nc2ccc(C(F)(F)F)cc2)[C@@H](C)CN([C@@H](C)CO)C(=O)c2cc(NC(=O)C3CCCCC3)ccc2O1` the value was “inactive”; for `C[C@@H]1CCCCO[C@H](CN(C)S(=O)(=O)c2ccc(Cl)cc2)[C@H](C)CN([C@@H](C)CO)C(=O)c2cc(NC(=O)Nc3ccc(C(F)(F)F)cc3)ccc2O1`, “inactive”.
Still for that read-out and setting: next, `C[C@@H]1CN([C@@H](C)CO)C(=O)c2cc(NC(=O)Nc3ccc4c(c3)OCO4)ccc2O[C@@H]1CN(C)Cc1ccc(C(=O)Nc2ccccc2N)cc1`: “inactive”; `C[C@H](CO)N1C[C@H](C)[C@@H](CN(C)C(=O)Cc2ccccn2)Oc2ncc(-c3ccc(F)cc3)cc2C1=O`: “inactive”; `COc1ccc(NC(=O)Nc2cccc3c2O[C@@H](CN(C)Cc2ccc(-c4ccccc4)cc2)[C@@H](C)CN([C@@H](C)CO)C3=O)cc1`: “inactive”.
Still for that read-out and setting: next, `C[C@H]1CCCCO[C@H](CN(C)S(=O)(=O)c2ccc(Cl)cc2)[C@@H](C)CN([C@@H](C)CO)C(=O)c2cc(NC(=O)NC3CCCCC3)ccc2O1`: “inactive”; `O=C(C[C@H]1C=C[C@@H](NC(=O)CN2CCOCC2)[C@H](CO)O1)NC1CCCCC1`: “inactive”.
Regarding `C[C@@H]1CN([C@H](C)CO)C(=O)c2cccc(NC(=O)CCCCCC(=O)Nc3ccccc3N)c2O[C@H]1CN(C)C(=O)Nc1ccccc1`, the cytotoxicity call was “inactive”.
Same read-out and setting: next, `Cc1noc(C)c1S(=O)(=O)N(C)C[C@H]1OCCCC[C@H](C)Oc2ccc(NS(=O)(=O)c3cn(C)cn3)cc2C(=O)N([C@@H](C)CO)C[C@@H]1C`: “inactive”; `C[C@H](CO)N1C[C@H](C)[C@H](CN(C)C)OCCCC[C@H](C)Oc2ccc(NC(=O)Nc3ccc(C(F)(F)F)cc3)cc2C1=O`: “inactive”; `CO[C@H]1CN(C)C(=O)c2cc(NC(=O)Nc3ccccc3F)ccc2OC[C@@H](C)N(CCC(F)(F)F)C[C@H]1C`: “inactive”.
`C[C@@H]1CCCCO[C@@H](CN(C)C(=O)CCC(F)(F)F)[C@H](C)CN([C@H](C)CO)C(=O)c2cc(NC(=O)c3ccccc3)ccc2O1`: the cytotoxicity call is “inactive”.
Still for that read-out and setting: for `COC(=O)CNc1nc(OC)nc(N(C)C)n1` the value was “inactive”; for `CC(C)NC(=O)N(C)C[C@@H]1Oc2ccc(NC(=O)CCC(F)(F)F)cc2C(=O)N([C@@H](C)CO)C[C@@H]1C`, “inactive”; for `C[C@H]1CN([C@@H](C)CO)C(=O)c2cc(C3=CCCCC3)cnc2O[C@H]1CN(C)C(=O)CN1CCOCC1`, “inactive”.
Same read-out and setting: next, `O=C(NO)c1cccc(C(=O)N/N=C/[C@H](O)[C@H](O)[C@@H](O)[C@@H](O)CO)c1`: “inactive”; `COc1ccc(S(=O)(=O)Nc2ccc3c(c2)CC(=O)N([C@@H](C)CO)C[C@@H](C)[C@H](CN(C)Cc2ccc(Oc4ccccc4)cc2)O3)cc1`: “inactive”; `C[C@H](CO)N1C[C@H](C)[C@H](CN(C)Cc2ccncc2)OCCCC[C@H](C)Oc2ccc(NC(=O)Cc3ccccc3)cc2C1=O`: “inactive”.
Same read-out and setting: for `C[C@H]1CN([C@@H](C)CO)C(=O)c2cc(NC(=O)C3CC3)ccc2O[C@H]1CN(C)Cc1ccc(Oc2ccccc2)cc1` the value was “inactive”.
Regarding `COC(=O)[C@@H]1CCCC1=O`, the cytotoxicity call was “inactive”.
